Data: the antibiotic and cytotoxicity screens of Wong et al. (2023)
The other results are listed elsewhere or left out.

Key:
HSkMC = human skeletal muscle cells; test: cytotoxicity call (relative viability < 0.9); conditions: 10 µM
HepG2 = test: cytotoxicity call (relative viability < 0.9); conditions: 10 µM
S. aureus RN4220 = test: growth inhibition call (relative growth <= 0.2); conditions: 50 µM

C[C@@H]1CN([C@@H](C)CO)S(=O)(=O)c2ccc(C#Cc3ccccc3)cc2O[C@H]1CN(C)C(=O)c1ccccn1
inactive: cytotoxicity call (HSkMC) | cytotoxicity call (HepG2) | growth inhibition call (S. aureus RN4220)

C[C@H]1CN([C@@H](C)CO)C(=O)c2cccc(NS(C)(=O)=O)c2O[C@@H]1CN(C)Cc1ccc(C(=O)O)cc1
inactive: cytotoxicity call (HSkMC) | cytotoxicity call (HepG2) | growth inhibition call (S. aureus RN4220)

C[C@@H]1CCCCO[C@@H](CN(C)C(=O)NC2CCCCC2)[C@H](C)CN([C@@H](C)CO)C(=O)c2cc(NS(=O)(=O)c3ccc(F)cc3)ccc2O1
inactive: cytotoxicity call (HSkMC) | cytotoxicity call (HepG2) | growth inhibition call (S. aureus RN4220)

COc1ccccc1-c1ccc2c(c1)O[C@H](CN(C)C(=O)c1ccncc1)[C@@H](C)CN([C@H](C)CO)S2(=O)=O
inactive: cytotoxicity call (HSkMC) | cytotoxicity call (HepG2) | growth inhibition call (S. aureus RN4220)

Cc1ccc(S(=O)(=O)N(C)C[C@@H]2Oc3c(NC(=O)c4cc(C)nn4C)cccc3C(=O)N([C@@H](C)CO)C[C@H]2C)cc1
inactive: cytotoxicity call (HSkMC) | cytotoxicity call (HepG2) | growth inhibition call (S. aureus RN4220)

OC[C@H]1O[C@@H](O)[C@H](O)[C@@H](O)[C@H]1O
inactive: cytotoxicity call (HSkMC) | cytotoxicity call (HepG2) | growth inhibition call (S. aureus RN4220)

COCC#Cc1ccc2c(c1)O[C@H](CN(C)S(=O)(=O)c1cccc(F)c1)[C@@H](C)CN([C@H](C)CO)S2(=O)=O
inactive: cytotoxicity call (HSkMC) | cytotoxicity call (HepG2) | growth inhibition call (S. aureus RN4220)

C[C@H](CO)N1C[C@H](C)[C@H](CN(C)Cc2ccccc2)OCCCC[C@H](C)Oc2ccc(NC(=O)Nc3ccccc3)cc2C1=O
inactive: cytotoxicity call (HSkMC) | cytotoxicity call (HepG2) | growth inhibition call (S. aureus RN4220)

C[C@H](CO)N1C[C@H](C)[C@@H](CN(C)Cc2ccc(-c3ccccc3)cc2)Oc2c(NC(=O)CCC(F)(F)F)cccc2C1=O
inactive: cytotoxicity call (HSkMC) | cytotoxicity call (HepG2) | growth inhibition call (S. aureus RN4220)
